Reference: the supplement of paper PMC12217912
Some of the results follow. The full chains were built here from the parent and the listed change. Values near 0.05 are background.

B1: TEV protease; numbered along this chain (parent)
chain: MGESLFKGPRDYNPISSSICHLTNESDGHTTSLYGIGFGPFIITNKHLFRRNNGTLVVQSLHGVFKVKDTTTLQQHLVDGRDMIIIRMPKDFPPFPQKLKFREPQREERICLVTTNFQTKSMSSMVSDTSCTFPSGDGIFWKHWIQTKDGQCGSPLVSTRDGFIVGIHSASNFTNTNNYFTSVPKNFMELLTNQEAQQWVSGWRLNADSVLWGGHKVFMVKPEEPFQPVKEATQL

Variants of: B1
Test: raw area under fraction-flipped curve 0-4 h after induction (AUC4h, not background-subtracted), DNA-recorder readout of cleavage of the substrate (dimensionless); higher = more cleavage of the substrate by the protease variant
Details: temperature: 34 °C; time window: 0-4 h after rhamnose induction
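Note: Bxb1 expression induced with 0.2% (w/v) L-rhamnose at OD600 near 0.5, cultures sampled hourly, flipped fraction per protease–substrate barcode pair counted by paired-end Illumina sequencing.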

| Variant | area with substrate CNLYFQS | area with substrate DNLYFQS | area with substrate FNLYFQS | area with substrate GNLYFQS | area with substrate INLYFQS | area with substrate KNLYFQS | area with substrate MNLYFQS | area with substrate NNLYFQS | area with substrate PNLYFQS | area with substrate QNLYFQS | area with substrate SNLYFQS | area with substrate TNLYFQS | area with substrate WNLYFQS | area with substrate YNLYFQS | area with substrate HNLYFQS | area with substrate VNLYFQS | area with substrate LNLYFQS | area with substrate RNLYFQS |
| --- | --- | --- | --- | --- | --- | --- | --- | --- | --- | --- | --- | --- | --- | --- | --- | --- | --- | --- |
| Q198R | 0.102 | 0.0815 | 0.083 | 0.0547 | 0.0656 | 0.057 | 0.0669 | 0.0806 | 0.0706 | 0.0691 | 0.0565 | 0.0594 | 0.0541 | 0.0579 | – | – | – | – |
| Q198E | 0.0648 | 0.0647 | – | 0.085 | 0.0631 | 0.0932 | 0.0691 | 0.0741 | 0.0726 | 0.0644 | 0.0699 | 0.0645 | 0.0495 | 0.0506 | 0.0929 | 0.0592 | – | – |
| Q198D | 0.0656 | 0.0897 | 0.0597 | 0.064 | – | 0.0332 | 0.0861 | 0.0574 | – | – | 0.051 | 0.0603 | 0.0423 | 0.0643 | 0.0532 | – | 0.0683 | – |
| Q198C | 0.0593 | 0.069 | 0.0559 | – | – | 0.0707 | – | – | 0.064 | 0.0619 | 0.0569 | – | 0.0505 | 0.0579 | – | – | 0.0672 | – |
| Q198W | 0.0401 | 0.0702 | – | 0.0581 | 0.029 | – | 0.0662 | 0.0579 | 0.0768 | 0.0667 | – | 0.06 | 0.0591 | 0.0651 | 0.0708 | – | 0.0503 | 0.0576 |
| K221V | 0.0633 | 0.0572 | 0.0642 | 0.0612 | – | 0.045 | – | 0.0726 | 0.0656 | – | 0.0626 | 0.0599 | 0.0562 | – | 0.0621 | 0.0563 | – | – |
| T192A | 0.0832 | – | 0.0691 | – | – | – | – | – | 0.062 | – | 0.0603 | 0.0801 | 0.0641 | 0.0559 | – | 0.0787 | 0.0551 | – |
| V217D | 0.0537 | 0.0591 | – | 0.0726 | 0.0548 | 0.0585 | – | 0.0497 | – | – | 0.0542 | 0.0448 | 0.0572 | – | 0.0557 | 0.0558 | – | – |
| W212Q | 0.0778 | 0.0449 | 0.0619 | 0.0642 | 0.058 | 0.0709 | 0.0626 | 0.0625 | 0.059 | 0.0484 | 0.0633 | – | 0.0527 | 0.0546 | 0.0529 | – | 0.0452 | 0.0664 |
| G214Y | 0.0517 | 0.0596 | – | – | 0.0633 | – | – | – | – | – | – | 0.0687 | 0.0615 | – | – | – | 0.0667 | – |
| A196E | 0.0661 | 0.0864 | 0.069 | 0.0834 | 0.0876 | 0.0773 | – | 0.0865 | 0.0682 | 0.072 | 0.0718 | 0.0646 | 0.0572 | 0.0589 | 0.0542 | 0.0795 | 0.0283 | 0.0568 |
| A196K | 0.0682 | 0.0803 | 0.0658 | 0.0729 | 0.0625 | 0.0908 | 0.0827 | 0.0788 | 0.0687 | – | 0.0657 | 0.0626 | 0.061 | 0.0548 | 0.0682 | 0.0473 | 0.0646 | 0.0585 |
| R204C | 0.0724 | 0.11 | 0.0692 | 0.0624 | 0.065 | – | 0.0683 | 0.0769 | 0.0768 | – | – | 0.0755 | 0.0598 | 0.0667 | 0.0783 | 0.0694 | 0.0702 | – |
| V220D | 0.0687 | 0.0704 | 0.0692 | 0.0736 | 0.0791 | 0.0556 | 0.0722 | – | 0.0566 | – | 0.0573 | 0.0693 | – | – | 0.07 | 0.0776 | 0.0471 | – |
| V220C | 0.0702 | 0.0569 | 0.0489 | – | – | 0.0656 | 0.0714 | 0.0654 | 0.0692 | – | – | 0.0634 | 0.0563 | 0.0483 | 0.0683 | 0.0681 | 0.072 | – |
| V220N | 0.0654 | 0.0696 | 0.0488 | – | 0.0554 | 0.0773 | 0.0666 | 0.0579 | 0.0779 | – | – | 0.0787 | – | 0.0663 | 0.0593 | 0.0803 | – | – |
| N193T | 0.0646 | 0.0573 | – | – | 0.0616 | 0.0635 | – | 0.0537 | 0.0622 | – | – | 0.0736 | 0.0587 | – | 0.0701 | 0.0709 | – | 0.0617 |
| N193G | 0.0606 | 0.0705 | – | – | – | – | – | – | 0.083 | – | 0.0725 | – | 0.0667 | 0.0504 | 0.073 | – | 0.0543 | – |
| L211P | 0.0614 | 0.0742 | 0.06 | 0.0574 | – | – | 0.0431 | – | 0.0512 | – | – | – | – | – | – | – | 0.0522 | – |
| L211H | 0.0994 | 0.0778 | – | – | – | – | 0.0655 | – | – | – | 0.0724 | – | 0.0689 | – | 0.071 | – | 0.0534 | – |
| A207P | 0.0544 | 0.0763 | – | – | – | – | – | – | 0.055 | – | 0.046 | 0.0549 | 0.0625 | 0.0881 | – | – | – | – |
| A207N | 0.0833 | 0.0755 | 0.055 | – | 0.0763 | 0.0564 | – | 0.0067 | 0.0651 | – | 0.0557 | 0.0606 | 0.0683 | 0.072 | 0.0579 | 0.054 | 0.06 | – |
| F226I | 0.0527 | 0.0761 | – | – | 0.0716 | 0.0683 | 0.0628 | 0.0911 | – | – | 0.0643 | 0.0658 | 0.0533 | 0.068 | – | 0.0712 | – | – |
| G202Y | 0.0773 | 0.0403 | 0.0202 | 0.0723 | – | – | – | – | 0.0593 | 0.0698 | 0.0599 | 0.0534 | 0.0568 | 0.0582 | – | 0.0485 | – | 0.0727 |
| G202H | 0.0654 | 0.0569 | – | 0.06 | – | 0.0641 | – | 0.0639 | 0.057 | – | 0.0845 | 0.0565 | 0.0588 | 0.0533 | 0.0606 | – | – | 0.0659 |
| L191D | 0.0486 | 0.0603 | 0.0578 | – | 0.0552 | 0.0713 | – | – | – | – | 0.0649 | 0.0538 | 0.0484 | 0.0616 | 0.0612 | – | 0.0467 | – |
| L191G | 0.0633 | 0.0574 | 0.0477 | 0.0703 | 0.05 | 0.0541 | 0.0446 | 0.0461 | 0.06 | 0.0537 | 0.0536 | – | 0.0634 | – | 0.0293 | – | 0.0511 | – |
| L191M | 0.0801 | 0.0741 | 0.0509 | 0.065 | 0.0777 | 0.0657 | 0.0644 | 0.0554 | 0.0612 | – | 0.0558 | 0.0485 | 0.0522 | 0.0584 | 0.0601 | 0.0784 | 0.0534 | – |
| P222E | 0.0768 | 0.0653 | – | 0.0541 | 0.0547 | 0.0668 | 0.06 | – | 0.0755 | – | – | 0.0589 | – | – | 0.0636 | 0.0592 | 0.0579 | – |
